Measured values: PubChem BioAssay AID686978 (National Center for Advancing Translational Sciences (NCATS), 2013)
About 64,000 (15%) of roughly 420,000 compounds were called active. The shares of active, inactive and inconclusive entries below differ from those in the screen. Calls follow the shape of the dose curve; as a rule, active = well fitted inhibition curve with a large enough effect; inconclusive = small, poorly fitted or top-dose-only effect; inactive = flat fitted curve, though single readings scatter. No potency is given beside an inconclusive call; the fits are too rough.

test: qHTS for Inhibitors of human tyrosyl-DNA phosphodiesterase 1 (TDP1): qHTS in cells in absence of CPT; details: DT40 Tdp1-/- hTDP1 cells, no CPT, ATP luminescence, 48 h; activity change, negative = growth inhibition: at 46.2 µM (top of the series) unless noted; also: nearly all actives have a fitted effect of over 55% in size
Summary of the method: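 A cellular qHTS used chicken DT40 cells lacking endogenous Tdp1 but carrying stably transfected human TDP1. Compounds were applied without camptothecin, and cell growth kinetics were judged by ATP-dependent luminescence after ≥48 hr.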
% is scaled to controls: 0 for no effect and ±100 for the full control effect; potency is read from the fitted curve at half-maximal effect; tags tell the direction and shape of the fitted curve.

| SMILES | Potency | activity change, negative = growth inhibition |
| --- | --- | --- |
| CCOC(=O)c1sc(N=NC2=C(O)CC(C)(C)CC2=O)c(C(=O)OCC)c1C | active: 14.6 µM |  |
| COc1ccc(-n2c(SCC(=O)Nc3ccccc3)nnc2-c2ccc(NS(=O)(=O)c3ccc(C)cc3)cc2)cc1 | inconclusive [inhibitor, single point] |  |
| O=c1cc(CN2CCN(c3ccccc3)CC2)c2c(ccc3ccccc32)o1 | inconclusive [inhibitor, single point] |  |
| COCCCNC(=S)N1CCN(c2nc(C)nc3sc4c(c23)CCCC4)CC1 | inconclusive [inhibitor, single point] |  |
| O=C(Nn1nnnc1Nc1ccccc1)C12CC3CC(CC(C3)C1)C2 | inconclusive [inhibitor, single point] |  |
| COc1ccc(CN2CCN(CCCc3ccccc3)C(CCO)C2)c(OC)c1 (stereo not given) | inconclusive [inhibitor, single point] |  |
| Cc1cc(C)c2c(CN3CCN(Cc4ccccc4)CC3)cc(=O)oc2c1C | inconclusive [inhibitor, single point] |  |
| Cc1noc(C)c1S(=O)(=O)NC(=O)C1(C)CCN1C(=O)c1ccc(C2CCCCC2)cc1 (stereo not given) |  | inactive: -7.07% |
| CC(NC(=O)COc1ccc([N+](=O)[O-])cc1)c1ccccc1 (stereo not given) | inconclusive [inhibitor, single point] |  |
| O=C(CSc1nnc(Cn2c(=O)sc3ccccc32)n1-c1ccccc1)Nc1nccs1 | inconclusive [inhibitor, partial curve] |  |
| Cc1c(Cl)cccc1N1C(=O)CC(NNC(=O)c2ccc3c(c2)OCO3)C1=O (stereo not given) |  | inactive: 3.7% |
| Oc1ccc(/C=N/Nc2nc(-c3cccnc3)nc3ccccc23)c(O)c1 | active: 4.11 µM |  |
| CCC(=O)Nc1ccc(C(=O)COC(=O)c2nc3nccc(C)n3n2)cc1 |  | inactive: 26.5% |
| CC(C)(C)c1cnnn1-c1ccc(C(=O)CCl)cc1 | active: 1.84 µM |  |
| CC1CCCCC12NC(=O)N(Cc1cc(=O)n3ccsc3n1)C2=O (stereo not given) |  | inactive: -8.18% |
| Cc1ccccc1NC(=O)c1sc(Cl)nc1C | inconclusive [inhibitor, partial curve] |  |
| Cc1nc(Nc2ccc3c(c2)OCCO3)c2nnn(Cc3ccccc3Cl)c2n1 | inconclusive [inhibitor, single point] |  |
| OC(c1ccc(F)cc1)c1ncc(-c2ccccc2F)[nH]1 (stereo not given) |  | inactive: -13.7% |
| COc1ccc(NC(=O)CSc2cn[nH]n2)cc1OC | inconclusive [inhibitor, single point] |  |
| CC(C(O)c1cc(=O)c(OCc2ccccc2)co1)[N+](=O)[O-] (stereo not given) | inconclusive [inhibitor, single point] |  |
